{"source": "PubChem BioAssay AID2546", "about": "(National Center for Advancing Translational Sciences (NCATS), 2010)", "note": "Out of some 310,000 compounds screened, about 11,000 (3.5%) were called active. Inconclusive means that the source gave no clear call. Such entries were picked first, then a sample of the others. The call rests on the fitted dose curve; in most records, active means well fitted inhibition curve with a large enough effect; inconclusive means small, poorly fitted or top-dose-only effect, or effect the other way; inactive means flat fitted curve, though single readings scatter. Potencies of inconclusive entries are left out as doubtful fits. Potency means the concentration at half of the fitted maximal effect; tags describe the fitted curve by direction and shape.", "data": [{"assay": "VP16 counterscreen qHTS for inhibitors of ROR gamma transcriptional activity;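 further: Gal4-VP16 expression switched on by copper sulfate through the metallothionein promoter; nearly all actives have a fitted effect of over 50% in size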", "settings": "Drosophila S2 Gal4-VP16 UAS-luciferase, luminescence, 20 h; series mostly up to 53.6 µM", "values": [{"smiles": "C=CCNC(=S)NNC(=O)c1cccc(Br)c1", "Potency": "inconclusive [inhibitor, partial curve]"}, {"smiles": "Cc1ccc(S(=O)(=O)NCC(=O)NCC2CCCCC2)cc1C", "Potency": "inactive"}, {"smiles": "COC(=O)c1ccc(CSc2nc(N3CCOCC3)c3c(c2C#N)CC(C)(C)OC3)o1", "Potency": "inactive"}, {"smiles": "COc1cccc(CNC(=S)Nc2cc(C)ccc2C)c1", "Potency": "active: 6.31 µM"}, {"smiles": "O=c1c(Cl)c(N2CCOCC2)cnn1-c1nc2ccccc2[nH]1", "Potency": "inconclusive [inhibitor, single point]"}, {"smiles": "Cc1ccc(C(=O)c2ccc(N3CCOCC3)c(F)c2)cc1", "Potency": "inconclusive [inhibitor, single point]"}, {"smiles": "CC1CC(C)CN(C(=O)CSCC(=O)Nc2nc(-c3cccs3)cs2)C1", "note": "(stereo unspecified)", "Potency": "inconclusive [inhibitor, single point]"}, {"smiles": "CCN(Cc1ccccc1)S(=O)(=O)c1ccc(C(=O)N2CCN(c3nc4ccccc4s3)CC2)cc1", "Potency": "active: 22.4 µM"}, {"smiles": "COC(=O)c1ccccc1NC(=S)NC(=O)c1ccccc1F", "Potency": "inconclusive [inhibitor, single point]"}, {"smiles": "Cc1cc(C)c2sc(N(CCCN(C)C)C(=O)COc3ccc(Cl)cc3)nc2c1", "Potency": "inconclusive [inhibitor, single point]"}, {"smiles": "CC(C)(C)c1cc(NC(=O)c2ccco2)n(-c2ccccc2)n1", "Potency": "inactive"}, {"smiles": "CNC(=O)c1[nH]cnc1C(=O)N[C@@H](CC(C)C)C(=O)OC(C)(C)C", "Potency": "inconclusive [inhibitor, single point]"}, {"smiles": "CCN(CC)CCn1c(=S)[nH]c2cc(C(=O)N3CC(C)CC(C)C3)ccc2c1=O", "note": "(stereo unspecified)", "Potency": "inactive"}, {"smiles": "COc1ccc(OC)c(C(=O)c2coc3ccc(OC(C)=O)cc23)c1", "Potency": "inactive"}, {"smiles": "FC(F)C(F)(F)C(F)(F)C(F)(F)c1cc(-c2ccccc2)n[nH]1", "Potency": "inconclusive [inhibitor, single point]"}, {"smiles": "Cn1c(=O)c2c(ncn2Cc2ccc(Cl)c(Cl)c2)n(C)c1=O", "Potency": "inconclusive [inhibitor, single point]"}, {"smiles": "O=C(O)CCCn1cc(NC(=O)c2sc3ccccc3c2Cl)cn1", "Potency": "active: 5.01 µM"}, {"smiles": "CC(C)c1ccc(NC(=O)CSc2nc3ncccc3[nH]2)cc1", "Potency": "inconclusive [inhibitor, single point]"}, {"smiles": "CCN(CC)CCOC(c1ccccc1)c1ccc(C)cc1", "note": "(stereo unspecified)", "Potency": "inactive"}, {"smiles": "O=C(COc1ccc(Cl)cc1Cl)NC(=S)Nc1ccc(CN2CCOCC2)cc1", "Potency": "inconclusive [inhibitor, single point]"}, {"smiles": "COC(=O)NNS(=O)(=O)c1ccc(C)cc1", "Potency": "inactive"}, {"smiles": "Cn1ncc2c(Nc3ccc(Br)cc3)nc(Nc3ccc(Br)cc3)nc21", "Potency": "inconclusive [inhibitor, single point]"}, {"smiles": "COc1cccc2c1NC(C(=O)O)C1CC=CC21", "note": "(stereo unspecified)", "Potency": "inconclusive [activator, single point]"}, {"smiles": "CCOC(=O)c1c(C)c(C(=O)NCc2ccc3c(c2)OCO3)c(C)n1C", "Potency": "inactive"}, {"smiles": "Cc1cc(-c2ccccc2)c2ccc(NC(=O)C(C)(C)C)nc2n1", "Potency": "inconclusive [inhibitor, single point]"}, {"smiles": "O=C(c1ccccc1)c1ccc(Sc2ccc([N+](=O)[O-])cc2)cc1", "Potency": "inactive"}, {"smiles": "O=C(N/N=C/c1cc([N+](=O)[O-])ccc1O)c1cccc2cc[nH]c12", "Potency": "active: 3.55 µM"}, {"smiles": "COc1ccc(C2CC(c3cccs3)=NN2c2ccccc2)cc1", "note": "(stereo unspecified)", "Potency": "inconclusive [activator, partial curve, poor fit]"}, {"smiles": "CCn1c(C)c(C)c2cc(C(=O)N3CCc4ccccc4C3)ccc21", "Potency": "inconclusive [inhibitor, single point]"}, {"smiles": "Cc1ccc(-c2nc(=S)c3c(n2Cc2ccco2)CC(C)(C)OC3)cc1", "Potency": "active: 15.8 µM"}, {"smiles": "C=CCOc1cccc(C(=O)Nc2ncn[nH]2)c1", "Potency": "inconclusive [inhibitor, single point]"}, {"smiles": "COc1cc(C/C=C\\c2ccccc2)c(OC)cc1O", "Potency": "inconclusive [inhibitor, single point]"}, {"smiles": "CCCc1cc(C(=O)Cc2ccc(C(=O)OCC)o2)c(O)cc1O", "Potency": "inconclusive [inhibitor, single point]"}, {"smiles": "CCC(=O)Nc1ccc(C(=O)CSc2nc3ccccc3[nH]2)cc1", "Potency": "inconclusive [activator, single point]"}, {"smiles": "CCc1c(C(=O)N/N=C/c2sccc2C)nnn1-c1nonc1N", "Potency": "active: 10 µM"}, {"smiles": "CCOC(=O)C(=O)Nc1cc(Cl)ccc1C", "Potency": "inactive"}, {"smiles": "COc1cc(CNCc2ccccn2)ccc1OCc1ccccc1Cl", "Potency": "inconclusive [inhibitor, single point]"}, {"smiles": "COc1ccc(C(=O)N/N=c2\\oc3ccccc3cc2C(=O)NCc2ccccc2)cc1", "Potency": "inconclusive [inhibitor, single point]"}, {"smiles": "CN(C)/N=C/c1ccc(/C=N/NC(N)=S)o1", "Potency": "inconclusive [inhibitor, single point]"}, {"smiles": "COc1ccc(CCCO[C@@H](Cn2ccnc2)c2ccc(OC)cc2)cc1", "Potency": "active: 31.6 µM"}, {"smiles": "O=C(Nc1nc2ccccc2n1CCN1CCOCC1)c1ccc(Cl)cc1", "Potency": "active: 2.82 µM"}, {"smiles": "S=C(NCc1cccs1)Nc1cccc(Cl)c1Cl", "Potency": "active: 8.91 µM"}, {"smiles": "CCOc1ccc(OCCC(=O)N2CCN(S(=O)(=O)c3ccc(OCC)cc3)CC2)cc1", "Potency": "inactive"}, {"smiles": "COCCNC(=O)C(NC(=O)C1CCC(C)CC1)C(C)C", "note": "(stereo unspecified)", "Potency": "inactive"}, {"smiles": "CCCCOc1ccc(/C(O)=C(\\C#N)c2nc3ccccc3[nH]2)cc1", "Potency": "inactive"}, {"smiles": "O=C(Nc1nc2c(s1)CCCC2)c1cc(-c2ccc3c(c2)OCO3)nc2ccccc12", "Potency": "inconclusive [inhibitor, partial curve]"}, {"smiles": "NC(=O)SCC(=O)Nc1ccc(Cl)c(Cl)c1", "Potency": "inconclusive [inhibitor, single point]"}, {"smiles": "O=c1cc(NCc2ccc3c(c2)OCO3)[nH]c(=O)n1-c1ccc(Cl)cc1", "Potency": "inconclusive [inhibitor, partial curve]"}, {"smiles": "Cc1c(F)cccc1NS(=O)(=O)c1ccc2c(c1)c(C)cc(=O)n2C", "Potency": "inconclusive [inhibitor, single point]"}, {"smiles": "COc1cc(C2CC(c3cccs3)=NN2C(=O)CCl)ccc1OC(F)F", "note": "(stereo unspecified)", "Potency": "active: 15.8 µM"}, {"smiles": "O=C(c1ccc(COc2ccccc2Cl)o1)N1N=C(C(F)F)CC1(O)C(F)F", "note": "(stereo unspecified)", "Potency": "inconclusive [inhibitor, single point]"}, {"smiles": "CCC(C)(C)c1ccc(OCC(=O)Nc2ccncc2)cc1", "Potency": "inconclusive [inhibitor, partial curve]"}, {"smiles": "COc1cc(C2C(C#N)=C(N)Oc3cc(O)ccc32)cc(OC)c1OC", "note": "(stereo unspecified)", "Potency": "inactive"}, {"smiles": "CN1CC=C2C(C#N)=C(N)C(C#N)(C#N)C(CCc3ccccc3)C2C1", "note": "(stereo unspecified)", "Potency": "inconclusive [activator, single point]"}, {"smiles": "CC1CCCC(NC(=S)Nc2ccc(SC(F)F)cc2)C1C", "note": "(stereo unspecified)", "Potency": "active: 5.01 µM"}, {"smiles": "N#C/C(=C/c1ccc(Sc2nc3ccccc3[nH]2)o1)c1cccc(F)c1", "Potency": "inconclusive [inhibitor, single point]"}, {"smiles": "Cn1c(CSCCOc2ccccc2)n[nH]c1=S", "Potency": "inconclusive [inhibitor, single point]"}, {"smiles": "COc1cc(/C=N/NC(=O)c2ccc3c(c2)OCO3)ccc1O", "Potency": "active: 7.08 µM"}, {"smiles": "CN(C)S(=O)(=O)c1cccc(-c2nn(-c3ccccc3)cc2/C=C2\\SC(=S)NC2=O)c1", "Potency": "inconclusive [inhibitor, single point]"}, {"smiles": "COc1ccccc1C(=O)C1CCCN(C(=O)c2cccc(Cn3cccn3)c2)C1", "note": "(stereo unspecified)", "Potency": "inactive"}, {"smiles": "O=C(Cn1cncn1)NCc1ccc(Cl)cc1", "Potency": "inconclusive [activator, single point]"}, {"smiles": "COc1cc(C2CC(=O)Oc3cc(C)cc(C)c32)cc(OC)c1OC", "note": "(stereo unspecified)", "Potency": "inconclusive [inhibitor, single point]"}, {"smiles": "Clc1ccc(-c2cn(-c3ccccc3)c3[n+]2CCS3)cc1", "Potency": "inactive"}, {"smiles": "N#C/C(=C\\c1cccc([N+](=O)[O-])c1)C(=O)NCc1cccnc1", "Potency": "inconclusive [inhibitor, single point]"}, {"smiles": "O=C(NCCc1ccccc1)C1COc2ccccc2O1", "note": "(stereo unspecified)", "Potency": "inactive"}, {"smiles": "Cn1c(Oc2ccc(F)cc2)c(C=O)c2ccccc21", "Potency": "inactive"}, {"smiles": "CCCCCn1c(=N)n(CC(O)COc2ccccc2OC)c2ccccc21", "note": "(stereo unspecified)", "Potency": "inconclusive [inhibitor, single point]"}, {"smiles": "COc1ccc(C)cc1NC(=O)CSc1ccc(Cl)cc1", "Potency": "inconclusive [activator, single point]"}, {"smiles": "CCCc1ccc(-c2cc(C(=O)N3CCN(c4ccccn4)CC3)c3ccccc3n2)cc1", "Potency": "active: 14.1 µM"}, {"smiles": "CCn1c(CNC(=O)c2cccc(C)c2)nc2ccccc21", "Potency": "inconclusive [inhibitor, single point]"}, {"smiles": "Cc1ccc(Cn2nc(C)c(NC(=O)c3cc(-c4ccco4)on3)c2C)cc1", "Potency": "inactive"}, {"smiles": "CC1CCCN(C(=O)c2nn(C)c3c2CSc2ccccc2-3)C1", "note": "(stereo unspecified)", "Potency": "inconclusive [inhibitor, single point]"}, {"smiles": "CN(Cc1ccc(C(F)(F)F)cc1)C(=O)C1CCC(=O)N(C2CC2)C1", "note": "(stereo unspecified)", "Potency": "inactive"}, {"smiles": "CC(C)(C)c1ccc(C(=O)Nc2ncn[nH]2)cc1", "Potency": "inconclusive [inhibitor, single point]"}, {"smiles": "Fc1ccc(NC(=S)NC2CC3CCCC(C2)N3Cc2cccs2)cc1", "note": "(stereo unspecified)", "Potency": "inconclusive [inhibitor, single point]"}, {"smiles": "Cc1cc(-n2c(SCC(=O)Nc3ccc(Br)cc3)nc3n[nH]c(C)c3c2=N)ccc1Cl", "Potency": "active: 20 µM"}]}]}
